These are yes or no findings as the source states them, for the method shown. In cells and extracts the contact can be indirect. Some entries that bind do so weakly or less than the wild type. For part of these data: Tags and fused reporters may be left off the sequences shown.
T1: Glucagon-like receptor 1 (human), P43220
T1 chain: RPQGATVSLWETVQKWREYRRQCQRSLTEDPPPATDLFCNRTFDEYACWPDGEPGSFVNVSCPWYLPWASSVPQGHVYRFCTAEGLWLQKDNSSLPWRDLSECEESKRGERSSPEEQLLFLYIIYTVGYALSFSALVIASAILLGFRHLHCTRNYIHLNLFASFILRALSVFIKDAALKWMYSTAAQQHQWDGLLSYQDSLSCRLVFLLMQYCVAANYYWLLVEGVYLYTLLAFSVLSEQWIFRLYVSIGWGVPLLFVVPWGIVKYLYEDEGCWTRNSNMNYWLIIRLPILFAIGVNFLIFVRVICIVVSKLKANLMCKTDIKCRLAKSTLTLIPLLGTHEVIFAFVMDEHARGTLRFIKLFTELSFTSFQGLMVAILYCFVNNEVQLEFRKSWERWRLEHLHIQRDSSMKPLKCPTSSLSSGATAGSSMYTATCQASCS

T2: Growth hormone releasing hormone (human), Q02643
T2 chain: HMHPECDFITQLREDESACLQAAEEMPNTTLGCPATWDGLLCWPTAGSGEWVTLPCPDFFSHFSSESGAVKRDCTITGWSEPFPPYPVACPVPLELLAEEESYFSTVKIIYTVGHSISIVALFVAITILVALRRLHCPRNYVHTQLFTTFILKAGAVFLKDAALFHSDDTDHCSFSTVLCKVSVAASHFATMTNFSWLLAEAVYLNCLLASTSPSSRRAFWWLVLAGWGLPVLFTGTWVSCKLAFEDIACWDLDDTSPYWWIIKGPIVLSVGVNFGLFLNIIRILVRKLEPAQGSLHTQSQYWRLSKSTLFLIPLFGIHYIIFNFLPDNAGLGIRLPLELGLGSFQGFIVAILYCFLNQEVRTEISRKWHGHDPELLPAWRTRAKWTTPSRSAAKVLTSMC

B1: Receptor activity-modifying protein 1, O60894 27-148 (protein)
chain: CQEANYGALLRELCLTQFQVDMEAVGETLWCDWGRTIRSYRELADCTWHMAEKLGCFWPNAEVDRFFLAVHGRYFRSCPISGRAVRDPPGSILYPFIVVPITVTLLVTALVVWQSKRTEGIV
B2: Receptor activity-modifying protein 2, O60895 43-175 (protein)
chain: QPLPTTGTPGSEGGTVKNYETAVQFCWNHYKDQMDPIEKDWCDWAMISRPYSTLRDCLEHFAELFDLGFPNPLAERIIFETHQIHFANCSLVQPTFSDPPEDVLLAMIIAPICLIPFLITLVVWRSKDSEAQA

What was measured:
[1] = target: T1, Glucagon-like receptor 1 (human), P43220; assay: co-IP; multiplexed suspension bead array (SBA) immunoassay: clarified lysates (1% DM; 50 mM Hepes, 1 mM EDTA, 150 mM NaCl, 5 mM MgCl2, pH 7.4) of HEK293F cells cotransfected with tagged GPCR and RAMP, diluted to 50 ug/ml, incubated overnight at 4°C with bar-coded beads carrying anti-tag (HA, 1D4, FLAG, OLLAS), anti-GPCR or anti-RAMP Abs; the partner detected with a PE-conjugated anti-tag mAb; Luminex FlexMap 3D, MFI; settings: remark: other sources report otherwise
[2] = target: T2, Growth hormone releasing hormone …; assay: as above; settings: remark: other sources report otherwise

Binder | binding [1] | binding [2]
B1 | binds | no binding
B2 | binds | –

Reference: article PMC6750928
